Consider 19 variants from the RNAGym collection of RNA variant scans (doi:10.1073/pnas.2313332121).

The chains are these.
B1: TPR 5TU (parent)
chain: GGAUCUUCUCGAUCUAACAAAAAAGACAAAUCUGCCACAAAGCUUGAGAGCAUCUUCGGAUGCAGAGGCGGCAGCCUUCGGUGGCGCGAUAGCGCCAACGUUCUCAACUAUGACACGCAAAACGCGUGCUCCGUUGAAUGGAGUUUAUCAUG

Variants at the background level are over-represented here.

The series covers variants of B1. Kind of series: polymerase ribozyme fitness, log enrichment relative to wild type (log ratio); higher = more active; in vitro selection for triplet polymerase activity. The method, boiled down:
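Mutant libraries were PCR-built and transcribed for each subunit of a heterodimeric triplet polymerase ribozyme and selected for one round in triplicate at −7 °C, frozen, before gel excision of extended constructs and streptavidin-bead capture. Input and output libraries were Illumina-sequenced, keeping genotypes with ≥10 input reads and ≥1 read per output. Fitness is a logarithmic ratio of genotype to wild-type enrichment, in base 2, using inverse-variance-weighted replicate averages.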
For the variant GGAUCUUCUCAAUCUAACAAAAAAGACAAAUCUCCCACAAAGCUUGAGAGCAUCUAUGGAUGCAGAGGCGGCAGCCUUCGGUGGCGCGAUAGCGCCAAGGUUCUCAACUAUGACACGCAAAACGCGUGCUCCGUUGAAUGGCGUUUAUCAUG [G11A G34C U56A C57U C99G A142C], the “polymerase ribozyme fitness (log ratio)” value was not above -4.2.
GGAUCUUCUCAAUCUAACAAAAAAGACAAAUCUGCCACAAAGCUUGAGAGCAUCUUCGGAUCCAGAGACGGCAGCCUUCGGUCGCGCGAUAGCGCCAACGUUCUCAACUAUGACACGCAAAACGCAUGCUCCGUUGAAUGGAGUUUGUCAUG [G11A G62C G68A G83C G126A A147G]: the “polymerase ribozyme fitness (log ratio)” value was not above -4.2.
With GGAUCUUCUCAAGCUACGAAAAAAGACAUUUCUGCCACAAAGCUUGAGCGCAUCUUCGGAUGCAGAGGCGGCAGCUUUCGGUGGCGGGAUAGCGCCAACGUUCUCAACUAUGACACGCAAAACGCGUGCUCCGUUGAAUGGAGUUUAUCAUG [G11A U13G A17C C18G A29U A30U A49C C76U C87G] the figure was not above -4.2.
For GGAUCUUCUCAAUCUAACAAAAAAGACAAAUCUGCCACAAAGCUUGAGAGCAUCUUCGGAUGCAGAGGUGGCAGCCUUCGGUGGCGUGAUACCGCCAACGUUCUCAACUAUGACACGCAAAACGCGUGCUCCGUUGAAUGGAGUUUAUCGUG [G11A C69U C87U G92C A150G], the “polymerase ribozyme fitness (log ratio)” value is -2.89.
As for GGAUCUUCUCAAUCGAACAAAAAAGACAAAUCUGCCACAAAGCUUAGGAGCAUCUUCGGGUGCAGAGGCGGCAGCCUUCGGUGGCGCGAUACCGCAAACGUUCUCAACUAUGACACGCAAAACGCGUGCUCCGUUGAAUGGAGUUUAUCAUG [G11A U15G G46A A47G A60G G92C C96A], the “polymerase ribozyme fitness (log ratio)” value is not above -4.2.
With GGAUCUUCUCAAUCUAACAAAAAAGACAAAUCUACCACAAAACUUGAGAGCAUCGUCGGAUGCAGAGGCGGCAGCCUUCGGUGGCGCGAUAGGGCCAACGUUCUCAACUAUGACACGCAAAACGCGUGCUCCGUUGAAUGGAGUUUAUCAUG [G11A G34A G42A U55G C93G], the “polymerase ribozyme fitness (log ratio)” value is not above -4.2.
To GGAUCUUCUCAAUCUAACAAAAAAGACAAAUCUGCCACAAAGCUUGAGAGCAUCUUCGGAUGCAGAGGCGGCAGCCUUAGGUGGCGCGAUAGCGCCAACGUUCGCAACUAUGACACGCAAAACGCGUGCUCCGUUGAAUGGAGUUUAUCAUG [G11A C79A U104G] belongs not above -4.2; to GGAUCUUCUCAAUCUAACAAAAAAGACAAAUCUGCCACAAAGCUUGAGAUCAUCUUCGGAUGCAGAGGCGGCAGCUUUCGGUGGCGCGAUAGCGCCAACGUUCUCAACUAUGACACGUAAAACGCGUGCUCCGUUGAAAGGAGUUUAUCAUG [G11A G50U C76U C118U U139A], not above -4.2.
With GGAUCUUCUCAAUCGACCAUAAAAGACAAAUCCGCCACAAAGCUUGAGAGCAUCUUCGGAUGCGGAGGCGGCAGCCUUCGGUGGCGCGAUAGGGCCAACGUUCUCAACUGUGACACGCAAAACGCGUGCUCCGUUGAAUGGAGUUUUUCAUG [G11A U15G A17C A20U U33C A64G C93G A110G A147U] the figure was not above -4.2; with GGAUCUUCUCAAGCUAGCAAAAAACACAAAUCUGCCACAAAGCUUGAGAGCAUCUUCGGAUGCAGAGGCGGCAGACUUCCGUGGUGCGAUAGCGCCAACGUUCUCAACUACGAAACGCAAAACGCGUGCUCCGUUGAAUAGAGUUUAUCAUG [G11A U13G A17G G25C C75A G80C C85U U111C C114A G140A], not above -4.2.
In the case of GGAUCUUCUCAAUCUAACAAAAAAGACAAAUCUUCCACAAAGCUUGAGAGCAUCUUCGGAUGCAGAGGCUGCAGCCUUCGGUGGCGCGAUAGGCCCAACGUUCUCAACUAUGACACGCAAAACGCGUGCUCCGUUGAAUGGAGUUUAUCAUG [G11A G34U G70U C93G G94C], the “polymerase ribozyme fitness (log ratio)” value was not above -4.2.
To GGAUCUUCUCAAUCUAACAAAAAAGACAAAUCUGCCACAAAGCUUGAGAGCAUCAUCGGAUGCAGAGGCGGCAGCCUUCGGUGGCGCGAUAGGGCCAACGUUCUCAACUAUGACACGCAAAACGCGUGCUCCGUUGAAUGGAGUUUAUCAUG [G11A U55A C93G] belongs not above -4.2.
With GGAUCUUCUCAAUCUAACAAAAAAGACAAAUCUGCCACAAAGCUUGAGAGCAUCUUCGGAUGCAGAGGCGGCAGCCUUCGGUGGUGCGAUACCGCCAACGUUCUCAACUAUGACACGCAAAACGCGUGCUCCGUUGAAUGGAAUUUAUCAUG [G11A C85U G92C G143A] the figure was -4.01; with GGAUCUUCUCAAUCUAACAAAAAAGACAAAUCUGCCACAAAGCUUGAGAGCAUCUUCGGAUCCAGAGGCGGCAGCCUUCGGUGGCGCGAUAGGGCCACCGUUCUCAACUAUGACACGCAAAACGCGUGCUCCGUUGAAUGGAGUUUAUCAUG [G11A G62C C93G A98C], not above -4.2; with GGAUCUUCUCAAUCUAACAAAAAAGACAAAUCUGCCACAAAGCUUGAGAGCAUCUUCGGAUGCAGAGGCGGCAGCCUUCGGUGGCACGAUAGCGCCAACGUUCUCAACUAUGACACGCAAAACGCGUGCUCCGUUGAAUGGAGUUUAUCAUG [G11A G86A], -2.24.
With GGAUCUUCUCAAUCUAACAAAAAAGACAAAUCUGCCACAAAGCUUGAGAGCAUCUUCGGAUGCAGAGGCGGCAGCCUUCGGUGGAGCGAUAGCGCCAACGUUCUCAACUAUGACACGCAAAACGCGUGCUCCGUUGAAUGGAGUUUAUCAUG [G11A C85A], the “polymerase ribozyme fitness (log ratio)” value is -2.76.
As to GGAUCUUCUCAAUCUAACAAAAAAGACAAAUCUGCCACAAAGCAAGAGAGCAUCUUAGGAUGAAGAGGCAGCAGCCUUCGGUGGCGCGAUAGAGCCAACGUUAUCACCUAUGACACGCAAAACGCGUGCUCCGUUGAAUGGAGUUUAUCAUG [G11A U44A U45A C57A C63A G70A C93A C103A A107C], the “polymerase ribozyme fitness (log ratio)” value is not above -4.2.
To GGAUCUUCUCAAUCAAACUAAAAAGACAAAUCUGCCACAAAGCUUCAGAGCAUCUUAGGAUGCAGAGGCGGCUGCCUUCGCUGGCGCGAUAGCGUCAACGUUUUCAACUAUGACACGCAAAACGCGUGCUCCGUUGAAUGGAGUUUAUCAUG [G11A U15A A19U G46C C57A A73U G81C C95U C103U] belongs not above -4.2; to GGAUCUUCUCAAUCUAACAAAAAAGACAAAUCUGCCACAAAGCUUGAGAGCAUCUUCGGAUGCAGAGGCGGCAGCCUUCGGUGGCGCGAUAGCGCCAACGUUCUCAACUAUGACACGCAAAACGUGUGCUCCGUUGAAGGGAGUUUAUCAUG [G11A C125U U139G], -2.67.
